# Reference: the supplement of paper PMC8728848
# Some of the results follow.
# B1: Pwp2 (Candida glabrata) (protein)
# chain: MGSSHHHHHHSSGLVPRGSHMASKNPVELNNVCTFPNDYGRIPGFTVLVGRLGLLISASDYKELLRYPGAFLIATQDTMTTSPNFELTGFPFFTGLYGLTVFPLDLLVELRGYFVPPNSGQYTFTLSDSDDAAIIFLGNPSAFPCGDLQNWPKPSEEDITVTDHLFPSRTLYLIEGVAYPMRIAYYNGIGAGRLNAAFIDPSGTRHTNWEGYIWQYDPCSTCTYS
# What was measured:
# Experiment in all cases: glycan array binding signal (z-score within array); higher = stronger binding
# Settings in all cases: glycan notation: IUPAC condensed, linker removed
# [1] = molecular target: Fuc(a1-3)GlcNAc
# In short: (§1)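 Arrays were curated from the Consortium for Functional Glycomics database, 3228 in total, and kept only where the protein sequence was available. Binding is expressed as a within-array Z-score. This score was averaged across arrays of the same protein sequence at different concentrations or buffers and across linkers, and negative values can be read as non-binding.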
# [2] = molecular target: Fuc(a1-3)[Gal(b1-4)]Glc6S
# In short: as §1
# [3] = molecular target: Fuc(a1-3)[Gal(b1-4)]GlcNAc
# In short: as §1
# [4] = molecular target: Fuc(a1-3)[Gal(b1-4)]GlcNAc(b1-2)Man
# In short: as §1
# [5] = molecular target: Fuc(a1-3)[Gal(b1-4)]GlcNAc(b1-2)Man(a1-3)[Fuc(a1-3)[Gal(b1-4)]GlcNAc(b1-2)Man(a1-6)]Man(b1-4)GlcNAc(b1-4)GlcNAc
# In short: as §1
# [6] = molecular target: Fuc(a1-3)[Gal(b1-4)]GlcNAc(b1-2)Man(a1-3)[Fuc(a1-3)[Gal(b1-4)]GlcNAc(b1-2)Man(a1-6)]Man(b1-4)GlcNAc(b1-4)[Fuc(a1-6)]GlcNAc
# In short: as §1
# [7] = molecular target: Fuc(a1-3)[Gal(b1-4)]GlcNAc(b1-3)Gal(b1-3)[Fuc(a1-4)]GlcNAc
# In short: as §1
# [8] = molecular target: Fuc(a1-3)[Gal(b1-4)]GlcNAc(b1-3)Gal(b1-4)[Fuc(a1-3)]GlcNAc
# In short: as §1
# [9] = molecular target: Fuc(a1-3)[Gal(b1-4)]GlcNAc(b1-3)Gal(b1-4)[Fuc(a1-3)]GlcNAc(b1-3)Gal(b1-4)[Fuc(a1-3)]GlcNAc
# In short: as §1
# [10] = molecular target: Fuc(a1-3)[Gal(b1-4)]GlcNAc(b1-3)GalNAc
# In short: as §1
# [11] = molecular target: Fuc(a1-3)[Gal(b1-4)]GlcNAc(b1-6)GalNAc
# In short: as §1
# [12] = molecular target: Fuc(a1-3)[Gal(b1-4)]GlcNAc(b1-6)[Gal(b1-3)GlcNAc(b1-3)]Gal(b1-4)Glc
# In short: as §1
# [13] = molecular target: Fuc(a1-3)[Gal(b1-4)]GlcNAc6S
# In short: as §1
# [14] = molecular target: Fuc(a1-3)[Gal3S(b1-4)]Glc
# In short: as §1
# [15] = molecular target: Fuc(a1-3)[Gal3S(b1-4)]GlcNAc
# In short: as §1
# [16] = molecular target: Fuc(a1-3)[Gal3S(b1-4)]GlcNAc6S
# In short: as §1
# [17] = molecular target: Fuc(a1-3)[GalNAc(b1-4)]GlcNAc
# In short: as §1
# [18] = molecular target: Fuc(a1-3)[GalNAc(b1-4)]GlcNAc6S
# In short: as §1
# [19] = molecular target: Fuc(a1-4)GlcNAc
# In short: as §1
# [20] = molecular target: Fuc(b1-3)GlcNAc
# In short: as §1
# [21] = molecular target: Gal(a1-2)Gal
# In short: as §1
# [22] = molecular target: Gal(a1-3)Gal
# In short: as §1
# [23] = molecular target: Gal(a1-3)Gal(b1-3)GlcNAc
# In short: as §1
# [24] = molecular target: Gal(a1-3)Gal(b1-3)GlcNAc(b1-2)Man
# In short: as §1
# [25] = molecular target: Gal(a1-3)Gal(b1-3)GlcNAc(b1-2)Man(a1-3)[Gal(a1-3)Gal(b1-3)GlcNAc(b1-2)Man(a1-6)]Man(b1-4)GlcNAc(b1-4)GlcNAc
# In short: as §1
# [26] = molecular target: Gal(a1-3)Gal(b1-3)GlcNAc(b1-3)GalNAc
# In short: as §1
# [27] = molecular target: Gal(a1-3)Gal(b1-3)GlcNAc(b1-6)GalNAc
# In short: as §1
# [28] = molecular target: Gal(a1-3)Gal(b1-3)[Fuc(a1-4)]GlcNAc(b1-2)Man(a1-3)[Gal(a1-3)Gal(b1-3)[Fuc(a1-4)]GlcNAc(b1-2)Man(a1-6)]Man(b1-4)GlcNAc(b1-4)GlcNAc
# In short: as §1
# [29] = molecular target: Gal(a1-3)Gal(b1-4)Glc
# In short: as §1
# [30] = molecular target: Gal(a1-3)Gal(b1-4)GlcNAc
# In short: as §1
# [31] = molecular target: Gal(a1-3)Gal(b1-4)GlcNAc(b1-2)Man
# In short: as §1
# [32] = molecular target: Gal(a1-3)Gal(b1-4)GlcNAc(b1-2)Man(a1-3)[Gal(a1-3)Gal(b1-4)GlcNAc(b1-2)Man(a1-6)]Man(b1-4)GlcNAc(b1-4)GlcNAc
# In short: as §1
# [33] = molecular target: Gal(a1-3)Gal(b1-4)GlcNAc(b1-3)GalNAc
# In short: as §1
# [34] = molecular target: Gal(a1-3)Gal(b1-4)GlcNAc(b1-6)GalNAc
# In short: as §1
# [35] = molecular target: Gal(a1-3)Gal(b1-4)[Fuc(a1-3)]GlcNAc
# In short: as §1
# [36] = molecular target: Gal(a1-3)Gal(b1-4)[Fuc(a1-3)]GlcNAc(b1-2)Man(a1-3)[Gal(a1-3)Gal(b1-4)[Fuc(a1-3)]GlcNAc(b1-2)Man(a1-6)]Man(b1-4)GlcNAc(b1-4)GlcNAc
# In short: as §1
# [37] = molecular target: Gal(a1-3)GalNAc
# In short: as §1
# [38] = molecular target: Gal(a1-3)[Gal(a1-4)]Gal(b1-4)GlcNAc
# In short: as §1
# [39] = molecular target: Gal(a1-4)Gal(b1-3)GlcNAc(b1-2)Man(a1-3)[Gal(a1-4)Gal(b1-3)GlcNAc(b1-2)Man(a1-6)]Man(b1-4)GlcNAc(b1-4)GlcNAc
# In short: as §1
# [40] = molecular target: Gal(a1-4)Gal(b1-4)Glc
# In short: as §1
# [41] = molecular target: Gal(a1-4)Gal(b1-4)GlcNAc
# In short: as §1
# [42] = molecular target: Gal(a1-4)Gal(b1-4)GlcNAc(b1-2)Man(a1-3)[Gal(a1-4)Gal(b1-4)GlcNAc(b1-2)Man(a1-6)]Man(b1-4)GlcNAc(b1-4)GlcNAc
# In short: as §1
# [43] = molecular target: Gal(a1-4)Gal(b1-4)GlcNAc(b1-3)Gal(b1-4)Glc
# In short: as §1
# [44] = molecular target: Gal(a1-4)GlcNAc
# In short: as §1
# [45] = molecular target: Gal(a1-6)Glc
# In short: as §1
binder,measurement,setting,value
B1,glycan array binding signal (z-score),[1],-0.085
same,glycan array binding signal (z-score),[2],3.42
same,glycan array binding signal (z-score),[3],-0.458
same,glycan array binding signal (z-score),[4],0.894
same,glycan array binding signal (z-score),[5],2.54
same,glycan array binding signal (z-score),[6],-0.449
same,glycan array binding signal (z-score),[7],0.403
same,glycan array binding signal (z-score),[8],-0.503
same,glycan array binding signal (z-score),[9],-0.492
same,glycan array binding signal (z-score),[10],-0.514
same,glycan array binding signal (z-score),[11],0.503
same,glycan array binding signal (z-score),[12],-1.15
same,glycan array binding signal (z-score),[13],-0.144
same,glycan array binding signal (z-score),[14],-0.373
same,glycan array binding signal (z-score),[15],-0.368
same,glycan array binding signal (z-score),[16],-0.075
same,glycan array binding signal (z-score),[17],0.493
same,glycan array binding signal (z-score),[18],-0.419
same,glycan array binding signal (z-score),[19],-0.487
same,glycan array binding signal (z-score),[20],-0.556
same,glycan array binding signal (z-score),[21],-0.324
same,glycan array binding signal (z-score),[22],-0.436
same,glycan array binding signal (z-score),[23],-0.455
same,glycan array binding signal (z-score),[24],-0.046
same,glycan array binding signal (z-score),[25],-0.151
same,glycan array binding signal (z-score),[26],-0.036
same,glycan array binding signal (z-score),[27],-0.526
same,glycan array binding signal (z-score),[28],0.743
same,glycan array binding signal (z-score),[29],-0.584
same,glycan array binding signal (z-score),[30],-0.484
same,glycan array binding signal (z-score),[31],-0.146
same,glycan array binding signal (z-score),[32],0.804
same,glycan array binding signal (z-score),[33],0.233
same,glycan array binding signal (z-score),[34],-0.281
same,glycan array binding signal (z-score),[35],-0.464
same,glycan array binding signal (z-score),[36],0.233
same,glycan array binding signal (z-score),[37],0.011
same,glycan array binding signal (z-score),[38],-0.437
same,glycan array binding signal (z-score),[39],-0.651
same,glycan array binding signal (z-score),[40],-0.251
same,glycan array binding signal (z-score),[41],-0.562
same,glycan array binding signal (z-score),[42],0.195
same,glycan array binding signal (z-score),[43],1.23
same,glycan array binding signal (z-score),[44],-0.288
same,glycan array binding signal (z-score),[45],-1.98
